Patent publication US20230312722A1 (NONA BIOSCIENCES SUZHOU, published 2023)

Assays:
Test in all cases: ELISA, plate coated with 1 µg/mL B7 family protein
[1] = target: T1, Recombinant human VISTA/B7H5/PD-1H Fc Chimera (R&D 7126-B7-050) (human, UniProt Q9H7M9 33-194)
T1 construct: Bought protein
T1 sequence (looked up): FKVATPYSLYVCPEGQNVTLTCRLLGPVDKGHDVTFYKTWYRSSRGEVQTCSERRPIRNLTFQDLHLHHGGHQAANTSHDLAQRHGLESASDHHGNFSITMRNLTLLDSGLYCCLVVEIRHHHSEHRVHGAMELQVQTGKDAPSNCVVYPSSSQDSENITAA
Procedure: (§1) The proteins of the B7 family (see Table 9-1 for details) were each diluted to 1 μg/mL with PBS, added to a 96-well plate (Corning, #9018) at 100 μL per well, and incubated overnight at 4° C. After the liquid was discarded, the plate was washed 3 times with PBST buffer (pH 7.4, containing 0.05% tween-20), and 250 μL of 2% BSA blocking buffer was added. The plate was incubated at 37° C. for 1 hour. The blocking buffer was discarded, and the plate was washed 3 times with PBST buffer (pH 7.4, containing 0.05% Tween-20). The test antigen-binding protein was diluted to 2 concentrations: 10 nM and 1 nM, and added at 100 μL per well. The plate was incubated at 37° C. for 1 hour. An isotype antibody was taken as a control. After the plate was washed 3 times with PBST buffer (pH 7.4, containing 0.05% Tween-20), the plate was added with a 5000-fold diluted goat anti-human F(ab′)₂ HRP secondary antibody (Jackson ImmunoResearch, 109-035-097), and incubated at 37° C. away from light for 1 hour. After the plate was washed 3 times with PBST buffer (pH 7.4, containing 0.05% Tween-20), TMB (Biopanda, #TMB-S-003) was added at 100 μL/well. The plate was left away from light at room temperature for about 30 minutes. The reactions were terminated by adding 50 μL of stop buffer (BBI life sciences, #E661006-0200) to each well, and the absorbance values at 450 nm (OD450) was measured using a microplate reader (PerkinElemer, #Enspire).

[2] = target: T2, Human B7-2/CD86 Protein, Fc Tag (Acro CD6-H5257) (human, UniProt P42081 26-247)
T2 construct: Bought protein
T2 sequence (looked up): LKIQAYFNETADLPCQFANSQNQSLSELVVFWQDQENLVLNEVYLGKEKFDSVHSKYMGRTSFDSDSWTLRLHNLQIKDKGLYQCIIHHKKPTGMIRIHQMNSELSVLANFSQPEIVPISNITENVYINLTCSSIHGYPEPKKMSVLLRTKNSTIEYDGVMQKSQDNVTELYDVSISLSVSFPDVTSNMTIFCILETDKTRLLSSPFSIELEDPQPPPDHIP
Procedure: as §1

[3] = target: T3, Human B7-1/CD80 Protein, Fc Tag (Acro B71-H5259) (human, UniProt P33681 35-242)
T3 construct: Bought protein
T3 sequence (looked up): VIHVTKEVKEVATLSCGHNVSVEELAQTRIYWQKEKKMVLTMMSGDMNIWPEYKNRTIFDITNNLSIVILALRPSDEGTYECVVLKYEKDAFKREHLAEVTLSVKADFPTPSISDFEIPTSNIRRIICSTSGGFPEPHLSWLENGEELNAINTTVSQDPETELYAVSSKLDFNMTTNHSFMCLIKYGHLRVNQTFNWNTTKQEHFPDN
Procedure: as §1

[4] = target: T4, Human PD-L1/B7-H1 Protein, His Tag (Acro PD1-H5229) (human, UniProt Q9NZQ7 part only)
T4 construct: Bought protein
Procedure: as §1

[5] = target: T5, Human B7-DC/PD-L2/CD273 Protein, Recombinant (Fc Tag) (Sino Biological H10292-H02H) (human, UniProt Q9BQ51 20-219)
T5 construct: Bought protein
T5 sequence (looked up): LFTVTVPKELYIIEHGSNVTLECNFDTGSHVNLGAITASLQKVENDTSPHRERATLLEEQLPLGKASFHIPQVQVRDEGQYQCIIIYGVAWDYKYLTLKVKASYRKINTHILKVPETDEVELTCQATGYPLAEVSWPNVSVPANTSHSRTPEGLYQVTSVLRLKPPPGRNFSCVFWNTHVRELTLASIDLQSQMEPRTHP
Procedure: as §1

[6] = target: T6, Recombinant human B7H7/HHLA2 Fc Chimera (R&D 8084-B7-050) (human, UniProt Q9UM44 23-344)
T6 construct: Bought protein
T6 sequence (looked up): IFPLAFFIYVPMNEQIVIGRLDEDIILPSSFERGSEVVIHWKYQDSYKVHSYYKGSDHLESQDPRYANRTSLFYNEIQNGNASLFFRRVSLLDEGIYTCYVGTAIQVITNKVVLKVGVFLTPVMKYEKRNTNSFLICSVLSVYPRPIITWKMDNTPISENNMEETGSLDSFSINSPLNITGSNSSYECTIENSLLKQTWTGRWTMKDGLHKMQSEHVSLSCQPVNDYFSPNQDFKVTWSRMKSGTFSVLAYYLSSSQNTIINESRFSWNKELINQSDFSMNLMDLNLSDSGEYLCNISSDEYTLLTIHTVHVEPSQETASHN
Procedure: as §1

[7] = target: T7, CD275/ICOS ligand Protein, Human, Recombinant (Fc Tag) (Sino Biological 11559-H02H) (human, UniProt O75144 19-258)
T7 construct: Bought protein; also called B7H2
T7 sequence (looked up): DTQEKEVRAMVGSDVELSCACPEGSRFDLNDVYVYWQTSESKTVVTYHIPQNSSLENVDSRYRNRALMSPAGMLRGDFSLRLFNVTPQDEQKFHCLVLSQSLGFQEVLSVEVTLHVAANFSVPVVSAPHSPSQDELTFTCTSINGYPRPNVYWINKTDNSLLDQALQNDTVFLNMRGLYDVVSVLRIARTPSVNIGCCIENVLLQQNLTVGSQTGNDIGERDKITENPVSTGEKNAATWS
Procedure: as §1

Measured: binding result

T4 sequence (Q9NZQ7 19-238 limits assumed): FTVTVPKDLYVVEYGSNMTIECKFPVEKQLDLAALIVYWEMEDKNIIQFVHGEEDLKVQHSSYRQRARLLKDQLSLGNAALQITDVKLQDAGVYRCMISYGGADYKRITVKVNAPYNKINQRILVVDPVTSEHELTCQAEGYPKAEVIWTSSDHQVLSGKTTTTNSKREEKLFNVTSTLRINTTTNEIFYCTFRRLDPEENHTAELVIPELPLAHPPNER

B1: PR002421 (antibody, human IgG1, kappa)
heavy: QVQLVQSGAEVKKPGSSMRVSCKASEDTFSSYAISWVRQAPGQGLEWMGGTAPIFGTTNYAQKFQGRVTITADKSTSTAYMELSSLRSEDTAVYYCARGGPYFDYWGQGTLVTVSSASTKGPSVFPLAPSSKSTSGGTAALGCLVKDYFPEPVTVSWNSGALTSGVHTFPAVLQSSGLYSLSSVVTVPSSSLGTQTYICNVNHKPSNTKVDKKV[human IgG1 Fc with changes not written out]
light: EIVMTQSPASLSVSPGERATLSCRASQSVSSNLAWYQQKPGQAPRLLIYGASTRATGIPARVSGGGSGTEFTLTISSLQSEDFAVYYCQQYKNWPFTFGPGTKLEIKRTVAAPSVFIFPPSDEQLKSGTASVVCLLNNFYPREAKVQWKVDNALQSGNSQESVTEQDSKDSTYSLSSTLTLSKADYEKHKVYACEVTHQGLSSPVTKSFNRGEC
notes: PTM variant/DE mutant of PR002037 (L: C87Y; Fc S239D, I332E), human IgG1; also called RP002421
no binding (tested: 10 nM): [1] | [2] | [3] | [4] | [5] | [6] | [7]
